Results from US20250163048A1 (Tango Therapeutics, Inc., priority 2022, published 2025).

Key:
[1] = system: HAP1 MTAP-deleted cell line; test: SDMA in-cell western assay, HAP1 MTAP-deleted; settings: for IC50 / IC90: Homo sapiens; for Hap1 MTAP intact/deleted ratio: IC50 ratio between HAP1 MTAP-intact and HAP1 MTAP-deleted cell line
MTAP-deleted cell line = test: viability assay for the MTAP-deleted cell line; type: cell-based; settings: Homo sapiens, HAP1, viability assay
[2] = system: HAP1 MTAP-intact cell line; test: SDMA in-cell western assay, HAP1 MTAP-intact; settings: Homo sapiens
[3] = HAP1, read-out: Hap1 MTAP deleted IC50, SDMA in-cell western, HAP1 MTAP-deleted cell line
[4] = HAP1, read-out: Hap1 MTAP deleted IC90, SDMA in-cell western, HAP1 MTAP-deleted cell line
[5] = HAP1, read-out: Hap1 MTAP intact IC50
[6] = HAP1, read-out: Hap1 MTAP deleted IC50, SDMA in-cell western assay, HAP1 MTAP-deleted cell line
[7] = HAP1, read-out: Hap1 MTAP deleted IC90, SDMA in-cell western assay, HAP1 MTAP-deleted cell line
[8] = HAP1, read-out: Hap1 MTAP intact IC50, SDMA in-cell western assay, HAP1 MTAP-intact cell line

Structure (SMILES)	IC50 ([2]; HAP1, read-out: Hap1 MTAP intact IC50, SDMA in-cell western, HAP1 MTAP-intact cell line) [µM]	IC50 [1, 6] [µM]	IC90 [1, 7] [µM]	IC50 [2, 8] [µM]	IC50 [1, 3] [µM]	IC90 [1, 4] [µM]	Hap1 MTAP intact/deleted ratio ([1]; SDMA in-cell western)	IC50 (MTAP-deleted cell line) [µM]	IC50 [2, 5] [µM]	Hap1 MTAP intact/deleted ratio ([1]; SDMA in-cell western assay)
C[C@H]1CC[C@H](c2ccc3sc(C4CCN(C)CC4)nc3c2)N(C(=O)C(=O)Nc2cnc(N)c3c2COC3)C1 (racemic) [Compound 193, N-(4-amino-1,3-dihydrofuro[3,4-c]pyridin-7-yl)-2-oxo-2-[rac-(2R,5S)-5-methyl-2-[2-(1-methyl-4-piperidyl)-1,3-benzothiazol-5-yl]-1-piperidyl]acetamide]	–	–	–	–	< 0.005	< 0.075	C (“C” indicates an IC50 ratio of less than 15 fold)	< 0.1	< 0.005	–
C[C@H]1CC[C@H](c2ccc3scnc3c2)N(C(=O)C(=O)Nc2cnc(N)c3c2COC3)C1 (racemic) [Compound 200, N-(4-amino-1,3-dihydrofuro[3,4-c]pyridin-7-yl)-2-oxo-2-[rac-(2R,5S)-2-(1,3-benzothiazol-5-yl)-5-methyl-1-piperidyl]acetamide]	–	< 0.005	< 0.075	–	–	–	–	< 0.1	> 0.05	B (“B” indicates an IC50 ratio greater than or equal to 15 fold but lower than 30 fold)
C[C@H]1CCN(C(=O)C(=O)Nc2cnc(N)c3cn[nH]c23)[C@@H](c2ccccc2)C1 (racemic) [Compound 209, N-(4-Amino-1H-pyrazolo[4,3-c]pyridin-7-yl)-2-oxo-2-[rac-(2R,4S)-4-methyl-2-phenyl-1-piperidyl]acetamide]	–	< 0.005	< 0.075	> 0.05	–	–	–	< 0.1	–	A (“A” indicates an IC50 ratio greater than or equal to 30 fold)
C[C@H]1CC[C@H](C2CCC(F)(F)CC2)N(C(=O)C(=O)Nc2cnc(N)c3cn[nH]c23)C1 (racemic) [Compound 220, N-(4-Amino-2H-pyrazolo[4,3-c]pyridin-7-yl)-2-oxo-2-[rac-(2R,5S)-2-(4,4-difluorocyclohexyl)-5-methyl-1-piperidyl]acetamide]	–	0.005 to 0.05	0.075 to 0.125	> 0.05	–	–	–	< 0.1	–	B (“B” indicates an IC50 ratio greater than or equal to 15 fold but lower than 30 fold)
CC[C@@H]1CC[C@H](C)N(C(=O)C(=O)Nc2cnc(N)c3cn[nH]c23)C1 (racemic) [Compound 223, N-(4-Amino-1H-pyrazolo[4,3-c]pyridin-7-yl)-2-oxo-2-[rac-(2S,5R)-5-ethyl-2-methyl-1-piperidyl]acetamide]	–	< 0.005	0.075 to 0.125	> 0.05	–	–	–	0.1 to 1	–	A (“A” indicates an IC50 ratio greater than or equal to 30 fold)
C[C@@H]1CC[C@@H](c2ccn(CCN(C)C)n2)N(C(=O)C(=O)Nc2cnc(N)c3cn[nH]c23)C1 (racemic) [Compound 224, N-(4-Amino-1H-pyrazolo[4,3-c]pyridin-7-yl)-2-oxo-2-[rac-(2R,5S)-2-[1-[2-(dimethylamino)ethyl]pyrazol-3-yl]-5-methyl-1-piperidyl]acetamide]	–	0.005 to 0.05	> 0.125	> 0.05	–	–	–	< 0.1	–	C (“C” indicates an IC50 ratio of less than 15 fold)

Second part, led by results:

IC50 ([2]; HAP1, read-out: Hap1 MTAP intact IC50, SDMA in-cell western, HAP1 MTAP-intact cell line) [µM]	IC50 [1, 6] [µM]	IC90 [1, 7] [µM]	IC50 [2, 8] [µM]	Structure (SMILES)	IC50 [1, 3] [µM]	IC90 [1, 4] [µM]	Hap1 MTAP intact/deleted ratio ([1]; SDMA in-cell western)	IC50 (MTAP-deleted cell line) [µM]	IC50 [2, 5] [µM]	Hap1 MTAP intact/deleted ratio ([1]; SDMA in-cell western assay)
> 0.05	–	–	–	C[C@H]1CC[C@H](c2ccccc2)N(C(=O)C(=O)Nc2cnc(N)c3c2COC3)C1 (racemic) [Compound 188, N-(4-amino-1,3-dihydrofuro[3,4-c]pyridin-7-yl)-2-oxo-2-[rac-(2R,5S)-5-methyl-2-phenyl-1-piperidyl]acetamide]	0.005 to 0.05	0.075 to 0.125	A (“A” indicates an IC50 ratio greater than or equal to 30 fold)	0.1 to 1	–	–
–	< 0.005	< 0.075	0.005 to 0.05	C[C@H]1CC[C@H](c2cncc(Cl)c2)N(C(=O)C(=O)Nc2cnc(N)c3cn[nH]c23)C1 (racemic) [Compound 203, N-(4-Amino-1H-pyrazolo[4,3-c]pyridin-7-yl)-2-oxo-2-[rac-(2R,5S)-2-(5-chloro-3-pyridyl)-5-methyl-1-piperidyl]acetamide]	–	–	–	< 0.1	–	A (“A” indicates an IC50 ratio greater than or equal to 30 fold)
–	< 0.005	< 0.075	0.005 to 0.05	C[C@H]1CC[C@H](c2ccsc2)N(C(=O)C(=O)Nc2cnc(N)c3cn[nH]c23)C1 (racemic) [Compound 205, N-(4-Amino-1H-pyrazolo[4,3-c]pyridin-7-yl)-2-oxo-2-[rac-(2R,5S)-5-methyl-2-(3-thienyl)-1-piperidyl]acetamide]	–	–	–	< 0.1	–	A (“A” indicates an IC50 ratio greater than or equal to 30 fold)
–	< 0.005	< 0.075	0.005 to 0.05	Cc1ccc([C@H]2CC[C@H](C)CN2C(=O)C(=O)Nc2cnc(N)c3cn[nH]c23)cc1C (racemic) [Compound 208, N-(4-Amino-1H-pyrazolo[4,3-c]pyridin-7-yl)-2-oxo-2-[rac-(2R,5S)-2-(3,4-dimethylphenyl)-5-methyl-1-piperidyl]acetamide]	–	–	–	< 0.1	–	B (“B” indicates an IC50 ratio greater than or equal to 15 fold but lower than 30 fold)
–	< 0.005	< 0.075	< 0.005	Cc1cnc2cc([C@H]3CC[C@H](C)CN3C(=O)C(=O)Nc3cnc(N)c4cn[nH]c34)ccc2c1 (racemic) [Compound 210, N-(4-Amino-1H-pyrazolo[4,3-c]pyridin-7-yl)-2-oxo-2-[rac-(2R,5S)-5-methyl-2-(3-methyl-7-quinolyl)-1-piperidyl]acetamide]	–	–	–	< 0.1	–	C (“C” indicates an IC50 ratio of less than 15 fold)
–	0.005 to 0.05	–	> 0.05	C[C@H]1CC[C@H](c2ccc3c(c2)CCC(=O)N3)N(C(=O)C(=O)Nc2cnc(N)c3cn[nH]c23)C1 (racemic) [Compound 218, N-(4-Amino-1H-pyrazolo[4,3-c]pyridin-7-yl)-2-oxo-2-[rac-(2R,5S)-5-methyl-2-(2-oxo-3,4-dihydro-1H-quinolin-6-yl)-1-piperidyl]acetamide]	–	–	–	< 0.1	–	C (“C” indicates an IC50 ratio of less than 15 fold)
–	0.005 to 0.05	< 0.075	> 0.05	C[C@H]1CC[C@H](c2ccc3c(c2)CCN(C)C3(C)C)N(C(=O)C(=O)Nc2cnc(N)c3cn[nH]c23)C1 (racemic) [Compound 221, N-(4-Amino-2H-pyrazolo[4,3-c]pyridin-7-yl)-2-oxo-2-[rac-(2R,5S)-5-methyl-2-(1,1,2-trimethyl-3,4-dihydroisoquinolin-6-yl)-1-piperidyl]acetamide]	–	–	–	< 0.1	–	B (“B” indicates an IC50 ratio greater than or equal to 15 fold but lower than 30 fold)
–	< 0.005	< 0.075	> 0.05	COc1cc([C@H]2CC[C@H](C)CN2C(=O)C(=O)Nc2cnc(N)c3cn[nH]c23)cnc1C (racemic) [Compound 225, N-(4-Amino-1H-pyrazolo[4,3-c]pyridin-7-yl)-2-oxo-2-[rac-(2R,5S)-2-(5-methoxy-6-methyl-3-pyridyl)-5-methyl-1-piperidyl]acetamide]	–	–	–	< 0.1	–	B (“B” indicates an IC50 ratio greater than or equal to 15 fold but lower than 30 fold)

Like-named read-outs stand apart in the source and are kept apart here.
